Experimental data taken from article PMC4336329 (PLoS ONE, 2015).
Hit rate of the full screen: of about 310,000 compounds, about 14,000 (4.5%) showed an effect of 50% or more. The effect is printed as a negative number. This is one part of the list.

What follows are compounds tested against human ether-à-go-go-related gene (hERG) potassium channel (human, UniProt Q12809) (assay: primary screen, population patch clamp on CHO cells stably expressing hERG).
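Note: peak tail current of the secondary pulse compared with the same well before compound.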

Chain of human ether-à-go-go-related gene (hERG) potassium channel (Q12809 whole entry, looked up): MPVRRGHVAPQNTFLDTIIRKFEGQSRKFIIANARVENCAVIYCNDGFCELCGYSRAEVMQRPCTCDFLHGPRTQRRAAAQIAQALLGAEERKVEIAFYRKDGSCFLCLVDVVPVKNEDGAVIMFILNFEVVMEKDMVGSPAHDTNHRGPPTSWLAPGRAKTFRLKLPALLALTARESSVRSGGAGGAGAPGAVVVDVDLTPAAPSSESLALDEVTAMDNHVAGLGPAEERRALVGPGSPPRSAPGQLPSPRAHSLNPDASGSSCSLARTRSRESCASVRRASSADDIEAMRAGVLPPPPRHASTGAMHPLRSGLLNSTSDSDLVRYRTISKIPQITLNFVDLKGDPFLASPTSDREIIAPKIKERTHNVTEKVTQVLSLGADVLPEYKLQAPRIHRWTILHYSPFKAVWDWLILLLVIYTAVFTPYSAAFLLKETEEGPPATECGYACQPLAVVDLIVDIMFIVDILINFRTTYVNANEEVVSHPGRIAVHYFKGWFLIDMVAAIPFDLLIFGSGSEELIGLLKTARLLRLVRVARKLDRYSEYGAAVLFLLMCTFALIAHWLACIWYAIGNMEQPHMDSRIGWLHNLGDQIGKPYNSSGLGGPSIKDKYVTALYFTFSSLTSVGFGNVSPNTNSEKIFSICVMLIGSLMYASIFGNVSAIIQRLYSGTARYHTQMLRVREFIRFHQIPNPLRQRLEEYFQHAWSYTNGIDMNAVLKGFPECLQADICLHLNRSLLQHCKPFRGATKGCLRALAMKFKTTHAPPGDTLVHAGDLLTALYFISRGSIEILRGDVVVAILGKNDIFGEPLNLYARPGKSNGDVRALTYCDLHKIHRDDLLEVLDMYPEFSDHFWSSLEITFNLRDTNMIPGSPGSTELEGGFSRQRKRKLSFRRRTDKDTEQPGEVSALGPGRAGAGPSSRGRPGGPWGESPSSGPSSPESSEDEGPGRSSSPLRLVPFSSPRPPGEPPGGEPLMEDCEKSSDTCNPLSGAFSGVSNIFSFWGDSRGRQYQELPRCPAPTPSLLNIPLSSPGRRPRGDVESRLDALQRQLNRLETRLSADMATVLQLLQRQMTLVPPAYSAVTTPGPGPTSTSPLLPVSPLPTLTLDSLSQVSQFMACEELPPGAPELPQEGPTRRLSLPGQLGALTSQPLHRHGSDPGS

Compared with CC(Oc1ccccc1F)C(=O)NNC(=O)CCS(=O)(=O)c1ccccc1Cl (centres unmarked), Cc1ccccc1NC(=O)Cc1nnc(NC(=O)Nc2ccccc2F)s1 is higher in “hERG current change (%, negative = inhibition) at 10uM” value: -19.2% for the first, 23.1% for the second.

First: Cc1cc2occ(CC(=O)Nc3nnc(C4CC4)s3)c2cc1C
Second: O=C(COc1ccc(Br)cc1)Nc1nnc(C2CC2)s1
The “hERG current change (%, negative = inhibition) at 10uM” value of the first is higher: 12.2% for the first, -4.14% for the second.

First: CCN1CCN(S(=O)(=O)c2ccc(Cl)c(C(=O)N(C)Cc3ccccc3)c2)CC1
Second: CN(C)C(=O)C(Sc1ccc(S(=O)(=O)N2CCCC2)cn1)c1ccccc1 (centres unmarked)
The “hERG current change (%, negative = inhibition) at 10uM” value of the first is lower: -28.8% for the first, -13.4% for the second.

Compared with Cc1cc(C)n2nc(C(=O)OCC(=O)NC(=O)c3ccccc3)nc2n1, CCOC(=O)c1c(NCc2ccccc2)n[nH]c1C is lower in “hERG current change (%, negative = inhibition) at 10uM” value: 14.5% for the first, 5% for the second.

Going from CCOC(=O)N1CCN(S(=O)(=O)/C=C/c2ccccc2)CC1 to C[N+](C)(C)CC(=O)N1CCN(c2ccc3ccccc3n2)CC1.[Cl-], the “hERG current change (%, negative = inhibition) at 10uM” value rises from -17.5% to 20.6%.

First: CNC(=O)/C(C#N)=C1\SC(Cc2ccc(F)cc2)C(=O)N1c1ccccc1C (centres unmarked)
Second: CCc1nnc(NC(=O)c2ccc(-c3ccc(F)cc3)o2)s1
The “hERG current change (%, negative = inhibition) at 10uM” value of the first is lower: -3.88% for the first, 8.98% for the second.

First: CCn1ncc(Br)c1C(=O)Nc1ccc(F)c([N+](=O)[O-])c1
Second: Cn1cnnc1SCC(=O)Nc1ccc(F)cc1F
The “hERG current change (%, negative = inhibition) at 10uM” value of the first is lower: -8.54% for the first, 34.2% for the second.

First: Cc1ccc(Nc2nc(N)nc(CSc3nccn3C)n2)c(C)c1
Second: Cc1ccc(Nc2nc(-c3ccc(O)cc3O)cs2)nc1
The “hERG current change (%, negative = inhibition) at 10uM” value of the first is lower: 6.3% for the first, 11.1% for the second.

Compared with CC(OC(=O)CNC(=O)C12CC3CC(CC(C3)C1)C2)C(=O)Nc1ccc(S(N)(=O)=O)cc1 (centres unmarked), CC(=O)Nc1ccc(S(=O)(=O)N2CCN=C2SCc2ccc(C)cc2)cc1 is lower in “hERG current change (%, negative = inhibition) at 10uM” value: 9.83% for the first, -12% for the second.

Compared with CCO[C@H]1OC(C(=O)N2CCN(Cc3ccccc3)CC2)=C[C@@H](c2cn(C(C)=O)c3ccccc23)[C@@H]1CCCO, O=C(O)c1cn(Cc2ccccc2)c2ccc(Cl)cc2c1=O is lower in “hERG current change (%, negative = inhibition) at 10uM” value: -54% for the first, -76.3% for the second.

Compared with O=C1NN(c2ccccc2)C(=O)/C1=C/c1ccc(-c2cccc(C(=O)O)c2)o1, CC(=O)c1cccc(N=Nc2c(-c3ccccc3)[nH]n(-c3ccccc3)c2=O)c1 is higher in “hERG current change (%, negative = inhibition) at 10uM” value: 9.63% for the first, 33.7% for the second.

First: Cc1ccccc1C1=NCC(=O)N(CC(=O)N2CCCCC2)c2sc(C)c(C)c21
Second: CCN(CC(=O)N1CCCCCC1)S(=O)(=O)c1ccc(C)cc1
The “hERG current change (%, negative = inhibition) at 10uM” value of the first is lower: -19.3% for the first, 9.33% for the second.

First: CCCCCn1c(SCC(=O)OCC)nc2cc(C(=O)NCc3ccco3)ccc2c1=O
Second: COCCn1c(N)c(C(=O)NCc2cccs2)c2nc3ccccc3nc21
The “hERG current change (%, negative = inhibition) at 10uM” value of the first is lower: 2.51% for the first, 6.25% for the second.

First: Cc1cc(OCCn2cnc3ccccc3c2=O)cc(C(C)C)c1
Second: Cc1ccc2nc(NC(=O)CCn3c(=O)sc4ccccc43)sc2c1
The “hERG current change (%, negative = inhibition) at 10uM” value of the first is lower: -8.11% for the first, 1.59% for the second.

First: Cc1ccc(C2=C(c3ccc([N+](=O)[O-])cc3)C(=O)OC2)cc1C
Second: Cc1ccc(-c2ccc(=O)n(CCC(=O)N3CCN(c4cccc(C)c4)C(C)C3)n2)cc1 (centres unmarked)
The “hERG current change (%, negative = inhibition) at 10uM” value of the first is lower: -45.7% for the first, -18.2% for the second.

Going from CCCn1c2ccccc2c2cnn(CC(=O)NCCCN3CCCCC3)c(=O)c21 to Cc1ccc(S(=O)(=O)N2CCCCC2)cc1NC(=O)CCc1nc2ccccc2c(=O)[nH]1, the “hERG current change (%, negative = inhibition) at 10uM” value rises from -53.4% to -24.3%.

Going from c1ccc(Nc2ccccc2)cc1 to Cn1c(CCCNC(=O)c2ccccc2)nc2ccccc21, the “hERG current change (%, negative = inhibition) at 10uM” value falls from 3.63% to -5.7%.

Going from Cc1ccccc1C(=O)NC(=S)NCCC1=CCCCC1 to O=C(NNC(=S)NCc1ccccc1)c1cccc([N+](=O)[O-])c1, the “hERG current change (%, negative = inhibition) at 10uM” value rises from 13.4% to 14.1%.

Going from CCCCOc1ccc(N(CC(=O)NC(C)(C)C)C(=O)CCC(=O)Nc2nccs2)cc1 to CCCCOc1ccc(/C(O)=C(\C#N)c2nc3ccccc3[nH]2)cc1, the “hERG current change (%, negative = inhibition) at 10uM” value rises from 3.69% to 7.5%.

Compared with CCN(CC(=O)Nc1ccc2c(c1)OCCO2)c1ccc(S(=O)(=O)N2CCOCC2)cn1, O=C(CN1c2cccc3cccc(c23)S1(=O)=O)N1CCOCC1 is higher in “hERG current change (%, negative = inhibition) at 10uM” value: 0.9% for the first, 20.8% for the second.

First: COc1ccc(OC)c(CCNC(=O)Cn2ccc3cc(S(=O)(=O)N4CCCC4)ccc32)c1
Second: COc1ccc(C(=O)Nc2ccc3nc(N4CCCCC4)cc(C)c3c2)c(OC)c1
The “hERG current change (%, negative = inhibition) at 10uM” value of the first is lower: -13.9% for the first, 4.06% for the second.

Compared with COc1ccccc1NCC(=O)N/N=C(\C)c1cccs1, COc1ccccc1Sc1nc(-c2ccccn2)ncc1OC is higher in “hERG current change (%, negative = inhibition) at 10uM” value: 6.3% for the first, 12.2% for the second.

Going from Cc1nc(N2CCC(C)CC2)c2c(C)c(C(=O)Nc3cc(F)ccc3C)sc2n1 to CCN1CCN(c2ccc(NC(=O)c3cc4ccccc4cc3OC)cc2C)CC1, the “hERG current change (%, negative = inhibition) at 10uM” value falls from 9.74% to -48.7%.

Going from CS/C(=N\S(=O)(=O)c1cccs1)Nc1ccc(N2CCOCC2)cc1 to O=C1OC(c2ccccc2)=C/C1=C\N1CCOCC1, the “hERG current change (%, negative = inhibition) at 10uM” value rises from -12.3% to 3.53%.

Going from O=C1OC(c2ccccc2)=NC12CC2c1ccc(Cl)cc1 (centres unmarked) to N#Cc1c(-c2ccccc2)nc(SCc2cccc(Cl)c2)[nH]c1=O, the “hERG current change (%, negative = inhibition) at 10uM” value falls from 8.97% to 8.7%.

Going from COc1cccc(CN2CCN(Cc3nc4c(s3)CCCC4)CC2CCO)c1 (centres unmarked) to Cc1cccc(-c2nc(CN3CCCC(C(=O)NC4CCC(C)CC4)C3)c(C)o2)c1 (centres unmarked), the “hERG current change (%, negative = inhibition) at 10uM” value falls from -48.5% to -68.4%.

First: COc1ccc(NC(=O)CSc2nnc(-c3cc(C)[nH]n3)n2N)cc1OC
Second: Cc1cccc(C)c1NC(=O)CSc1nc2[nH]c(=O)cc(O)c2s1
The “hERG current change (%, negative = inhibition) at 10uM” value of the first is higher: 20.2% for the first, -4.15% for the second.

Compared with CCOc1ccc(C(=O)Nc2ccc(S(=O)(=O)NCC3CCCO3)cc2)cc1OCC (centres unmarked), COc1cccc(CN(C)C(=O)c2cc(S(=O)(=O)NC3CCCCC3)ccc2C)c1OC is lower in “hERG current change (%, negative = inhibition) at 10uM” value: 14.5% for the first, -4.41% for the second.

Going from COc1cc2cc(CN(CCc3cccc(C)c3)C(=S)NCCCN(C)C)c(=O)[nH]c2cc1OC to Cc1ccc2nc(-c3ccccn3)[nH]c2c1.Cl, the “hERG current change (%, negative = inhibition) at 10uM” value rises from -1.74% to -1.64%.

Compared with Cc1cc(NC(=O)CN2C(=O)NC(C)(CCc3ccccc3)C2=O)no1 (centres unmarked), Cc1cnc(NC(=O)C2=C(O)c3ccccc3S(=O)(=O)N2C)s1 is higher in “hERG current change (%, negative = inhibition) at 10uM” value: -1.81% for the first, 3.69% for the second.

Compared with C#CCOCCOCCOCCNc1nc(N2CCN(C(=O)[C@H]([C@@H](C)CC)n3cc(CCC(=O)O)nn3)CC2)nc(N2CCN(C(=O)[C@H](C)n3cc(CCC[NH+]=C(N)N)nn3)CC2)n1.[Cl-], Cc1ccc(S(=O)(=O)N2CCCCC2C(=O)N2CCN(c3ccccc3F)CC2)cc1 (centres unmarked) is higher in “hERG current change (%, negative = inhibition) at 10uM” value: 6.34% for the first, 15.6% for the second.

Going from O=C(Cc1ccccc1F)NCC1(N2CCOCC2)CCCCC1 to O=C(NC1CCCCC1)C(c1ccccc1F)N(C(=O)c1csnn1)C1CCCC1 (centres unmarked), the “hERG current change (%, negative = inhibition) at 10uM” value rises from -2.68% to 2.46%.

Going from CN(CCN1CCOCC1)Cc1nc(-c2ccc(Cl)cc2)no1 to Clc1cccc(OCCN2CCOCC2)c1.O=C(O)C(=O)O, the “hERG current change (%, negative = inhibition) at 10uM” value rises from -28.1% to -2.27%.

Going from COc1cc2c(cc1OC)CN(C(=O)CC1CC3CCC1C3)CC2 (centres unmarked) to COc1cc(C(C2=C(O)CC(C)(C)CC2=O)C2C(=O)CC(C)(C)CC2=O)cc(OC)c1OC (centres unmarked), the “hERG current change (%, negative = inhibition) at 10uM” value rises from -10.1% to 14.9%.

First: COc1ccc(C(=O)Nc2ccc(C(=O)O)cc2NC(=O)c2ccc(OC)cc2)cc1
Second: NC(=O)C1CC(=O)N(c2ccc(OCC(=O)Nc3ccc(Cl)cc3)cc2)C1 (centres unmarked)
The “hERG current change (%, negative = inhibition) at 10uM” value of the first is higher: 18.8% for the first, 3.98% for the second.

Going from Cc1cc(=O)[nH]c(N/N=C/c2ccc(C)o2)n1 to Cc1cc(C)[n+]2[nH]c(N)c(N=Nc3ccccc3)c2n1.[Cl-], the “hERG current change (%, negative = inhibition) at 10uM” value falls from 4.6% to -19.6%.

Going from CC(C)N1CCc2c(sc(N)c2C#N)C1 to Cc1cccc(-n2ncc3c2CCCC3NC(=O)CCc2ccncc2)c1C (centres unmarked), the “hERG current change (%, negative = inhibition) at 10uM” value rises from -8.82% to 4.95%.

First: O=C(Cn1cc([N+](=O)[O-])cn1)N1CCN(Cc2ccc3c(c2)OCO3)CC1
Second: Cc1cccc(-n2cc(CN3CCCN(C=O)CC3)c(-c3cccc(F)c3)n2)c1
The “hERG current change (%, negative = inhibition) at 10uM” value of the first is lower: -14.2% for the first, -10.8% for the second.

First: O=C(Nc1ncccc1Cl)c1ccccc1F
Second: NC1=NC(=O)/C(=C/c2ccccc2OS(=O)(=O)c2ccccc2)S1
The “hERG current change (%, negative = inhibition) at 10uM” value of the first is lower: 3.13% for the first, 5.2% for the second.

First: COC(=O)C/C=C/[C@@H](C)[C@@H](/C=N/O[C@H](C)c1cn([C@@H]2COC[C@H]2O)nn1)NS(=O)(=O)c1ccc(C)cc1
Second: CCc1ccc(-c2cc(C)no2)cc1S(=O)(=O)N1CCCN(Cc2ccc(F)cc2)C1
The “hERG current change (%, negative = inhibition) at 10uM” value of the first is lower: 4.63% for the first, 5.62% for the second.

Going from CCc1ccccc1NC(=O)CN(C1CCCCC1)S(C)(=O)=O to OCCC1CN(C2CCSCC2)CCN1C1CCCC1 (centres unmarked), the “hERG current change (%, negative = inhibition) at 10uM” value falls from 4.29% to 3.76%.

First: CCOC(=O)C(O)(CCC(O)(C(=O)OCC)C(=O)OCC)C(=O)OCC
Second: Cc1ccc(C(C(=O)NCc2ccco2)N(Cc2ccco2)C(=O)CNC(=O)c2ccco2)cc1 (centres unmarked)
The “hERG current change (%, negative = inhibition) at 10uM” value of the first is higher: 5.85% for the first, -7.59% for the second.

Compared with CNC(=S)n1cnc(N)n1, O=C(CSc1nncs1)NCc1ccc(F)cc1 is higher in “hERG current change (%, negative = inhibition) at 10uM” value: 8.75% for the first, 18.9% for the second.
